# Laboratory results published in paper PMC4336329 (PLoS ONE, 2015).
# About 2,200 (0.71%) of roughly 310,000 compounds showed an effect of 50% or more. The effect is printed as a negative number. This is one part of the list.
# Biological target: human ether-à-go-go-related gene (hERG) potassium channel (human, UniProt Q12809)
# Test: primary screen, population patch clamp on CHO cells stably expressing hERG
# Chain of human ether-à-go-go-related gene (hERG) potassium channel (Q12809 whole entry, looked up): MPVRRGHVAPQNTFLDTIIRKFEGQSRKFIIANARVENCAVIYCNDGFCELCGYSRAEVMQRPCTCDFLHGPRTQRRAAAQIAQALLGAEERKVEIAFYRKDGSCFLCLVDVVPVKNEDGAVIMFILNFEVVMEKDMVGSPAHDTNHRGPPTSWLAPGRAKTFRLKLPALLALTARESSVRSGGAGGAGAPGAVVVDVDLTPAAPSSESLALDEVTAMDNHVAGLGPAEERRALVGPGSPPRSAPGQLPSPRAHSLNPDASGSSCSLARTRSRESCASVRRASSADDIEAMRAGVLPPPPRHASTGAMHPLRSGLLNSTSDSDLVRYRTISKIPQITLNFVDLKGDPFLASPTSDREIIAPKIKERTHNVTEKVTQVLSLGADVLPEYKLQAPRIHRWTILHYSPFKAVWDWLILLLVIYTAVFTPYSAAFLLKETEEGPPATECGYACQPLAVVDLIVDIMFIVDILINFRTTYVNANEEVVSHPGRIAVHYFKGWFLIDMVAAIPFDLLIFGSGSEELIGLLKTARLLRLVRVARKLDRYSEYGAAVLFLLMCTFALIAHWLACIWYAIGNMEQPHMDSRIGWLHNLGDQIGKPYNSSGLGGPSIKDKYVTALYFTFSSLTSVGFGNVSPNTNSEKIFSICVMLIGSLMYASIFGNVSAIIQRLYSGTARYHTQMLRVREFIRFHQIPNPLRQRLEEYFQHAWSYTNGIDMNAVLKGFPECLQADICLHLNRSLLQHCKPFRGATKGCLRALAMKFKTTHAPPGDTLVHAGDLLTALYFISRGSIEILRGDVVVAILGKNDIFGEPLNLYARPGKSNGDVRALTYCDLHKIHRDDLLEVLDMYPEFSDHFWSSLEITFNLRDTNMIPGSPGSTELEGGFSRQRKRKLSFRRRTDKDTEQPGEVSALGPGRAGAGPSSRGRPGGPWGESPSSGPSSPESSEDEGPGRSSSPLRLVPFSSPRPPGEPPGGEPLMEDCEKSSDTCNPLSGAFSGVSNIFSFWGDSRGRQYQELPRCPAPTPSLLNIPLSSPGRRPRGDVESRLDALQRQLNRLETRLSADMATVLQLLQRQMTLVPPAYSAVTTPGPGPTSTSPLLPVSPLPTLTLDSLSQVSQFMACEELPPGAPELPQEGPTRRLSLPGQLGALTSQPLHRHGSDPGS
row,Structure (SMILES),"hERG current change (%, negative = inhibition) at 1uM"
1,CCOC(=O)c1c(C)c(C(=O)N2CCc3ccccc3C2)c(C)n1CC,-5.97%
2,CCC1CCCCN1S(=O)(=O)c1ccc2c(c1)CCN2C(C)=O (stereo not shown),5.26%
3,CCn1c(CNc2nc(-c3ccccc3)cs2)nnc1SCC(=O)NCc1ccccc1,-13.9%
4,Cc1ccc(N(C(=O)c2ccco2)C(C(=O)NC2CCCC2)c2cccnc2)cc1 (stereo not shown),11.4%
5,COCC(=O)c1[nH]c2ccccc2c1C,5.05%
6,O=C(NCCN1C(=O)C2C3C=CC(C3)C2C1=O)N1CCCCC1 (stereo not shown),12.7%
7,CCOC(=O)C1CCN(C(=O)Cn2cnc3sc(C)c(S(=O)(=O)N4CCOCC4)c3c2=O)CC1,5.13%
8,CCOC(=O)CCc1cnccc1-c1cccc(OC)c1O,6.86%
9,CC(=O)N(CCC(c1ccco1)C(C)C)Cc1ccc(OC(C)C)cc1 (stereo not shown),10.4%
10,CCOc1ccc(N(C(=O)c2ccccc2Cl)C2=NC(C)(C)CS2)cc1,8.08%
11,O=C(O)Cn1cc(/C=C2\SC(=O)N(c3ccccc3)C2=O)c2ccccc21,3.97%
12,CCc1ccccc1N(CC)C(=O)CCc1nc(-c2ccc(C)cc2)no1,3.77%
13,CCOC(=O)c1c(CN2CCCCC2)oc2ccc(OC)cc12,-12.4%
14,CN(C(=O)CSc1ccc(S(=O)(=O)N2CCCCC2)cn1)c1ccccc1,3.05%
15,O=C(NCC1CCCO1)/C(=C/c1cn(-c2ccccc2)nc1-c1cccnc1)NC(=O)c1ccccc1 (stereo not shown),9.5%
16,Cc1nn(CC(=O)NCCN2CCOCC2)c(=O)c2cc3sccc3n12,30.3%
17,O=C(Oc1ccc(OC(=O)C2CCC2)cc1)C1CCC1,10.1%
18,Cc1cccc2cc(CNCC3CCCO3)c(Cl)nc12 (stereo not shown),2.04%
19,CC1CCCCN1C(=O)c1c(Cl)cnn1C (stereo not shown),12.7%
20,NS(=O)(=O)c1ccc(CCNC(=O)CCNC(=O)c2ccco2)cc1,15.9%
21,COc1cc(CN(C)Cc2ccccc2)cc(OC)c1O,6.67%
22,CC(C)(C)c1ccc(C(=O)Nc2cccc(-n3cnnn3)c2)cc1,6.38%

row,Structure (SMILES),"hERG current change (%, negative = inhibition) at 1uM"
1,COc1ccc(/C=C2\SC(=O)N(CCC(=O)N(C)C3CCS(=O)(=O)C3)C2=O)cc1 (stereo not shown),9.44%
2,COc1ccc(S(=O)(=O)N(CC(C)C)C2CCS(=O)(=O)C2)cc1OC (stereo not shown),13%
3,CCSc1nc2c(c(=O)n1CC)SC(C)C2 (stereo not shown),8.22%
4,Cc1oc(-c2cc(F)ccc2F)nc1CN1CCN(c2ncnc3ccccc23)CC1,-7.23%
5,COc1ccc(N2CCN(C3CC(=O)N(C)C3=O)CC2)cc1 (stereo not shown),18%
6,CCOP(=O)(OCC)C(Cc1ccccc1)NC(C)=O (stereo not shown),11.3%
7,Cc1ccc(C(=O)/C=C/c2cc(C#N)n(C)c2C)cc1,18%
8,O=C(Oc1ccc(C(=S)N2CCOCC2)cc1)c1cccc([N+](=O)[O-])c1,11.7%
9,COc1cccc(C2C(C#N)=C(N)Oc3cc(C)oc(=O)c32)c1OC (stereo not shown),6.13%
10,CCC1=NN2C(=N)/C(=C/c3ccc(OS(=O)(=O)c4ccc(C)cc4)c(OC)c3)C(=O)N=C2S1,9.41%
11,CCc1nnc(NC(=O)C2CCCN2S(=O)(=O)c2ccccc2)s1 (stereo not shown),13.1%
12,CC(=O)c1ccc(NC(=O)CSc2nnc(-c3ccncc3)n2C2CC2)cc1,9.22%
13,O=C(NCc1ccc(Cl)c(Cl)c1)c1ccc2c(c1)OCO2,-2.74%
14,CC(=O)Nc1ccc(NC(=O)CN(c2ccc([N+](=O)[O-])cc2)S(=O)(=O)c2ccccc2)cc1,9.06%
15,Cc1ccc(C(=O)O)cc1S(=O)(=O)N1CCOCC1,12.9%
16,O=C(CN(c1cccc(Cl)c1)S(=O)(=O)c1ccc(Cl)cc1)N1CCc2ccccc2C1,-17.5%
17,COc1cc(C(=O)OCC(=O)Nc2c(F)c(F)c(F)c(F)c2F)cc(OC)c1OC,11.6%
18,NC(=O)c1c(NC(=O)CCCn2cnc([N+](=O)[O-])n2)sc2c1CCCC2,3.37%
19,O=C(CN1CCOc2ccccc21)N1CCN(c2cccc(Cl)c2)CC1,1.22%
20,COc1ccc(CN2CCN(c3ccccc3F)CC2)c(OC)c1,-57.8%
21,Cc1noc(NS(=O)(=O)c2ccc(NC(=O)C(F)(F)C(F)(F)C(F)(F)F)cc2)c1C,10.9%
22,Cc1ccc(N2C(=O)C3C4C=CC(CNC(=S)Nc5cccc(Cl)c5)(O4)C3C2=O)cc1 (stereo not shown),-3.83%

row,Structure (SMILES),"hERG current change (%, negative = inhibition) at 1uM"
1,CCC(O)(CCN1CCCCC1)c1ccccc1 (stereo not shown),3.27%
2,O=C(Nc1cn(-c2ccccc2)nc1-c1ccc(Cl)cc1)c1ccccc1,7.01%
3,COc1ccc(S(=O)(=O)N(C)C)cc1NC(=O)COC(=O)Cn1cnc2ccccc2c1=O,5.03%
4,CCC(Cc1ccccc1)NC(=O)CCn1cccc1 (stereo not shown),10%
5,O=C(CC1C(=O)NCCN1CC1CCCCC1)NC1(c2ccccc2)CC1 (stereo not shown),18.4%
6,O=C(COC(=O)c1ccccc1O)Nc1ccc(N2CCOCC2)cc1,5.13%
7,O=C(CN1C(=O)C(=O)N(Cc2ccco2)C1=O)NC1CCCCC1,21.2%
8,O=C(Nc1ccc(N2CCOCC2)cc1)c1ccc(Cl)c(S(=O)(=O)N2CCCC2)c1,12.6%
9,Cc1cccc(/C(N)=N/OC(=O)CCCc2ccccc2)c1,8.17%
10,O=C(NCc1cccnc1)c1ccc(Cl)c(S(=O)(=O)Nc2ccccc2C(=O)NCc2cccnc2)c1,2.3%
11,COC(=O)c1ccccc1NC(=O)CSc1nnc(-c2cccnc2)n1N,2.17%
12,Cc1c(C(=O)NC(C)CN2CCCCC2)oc2ccccc12 (stereo not shown),-7.81%
13,O=C(COc1cccc2ccccc12)NCc1cccnc1,9.41%
14,O=C1c2ccccc2CSc2c(O)cccc21,1.06%
15,CS(=O)(=O)N(CC(=O)N1CCCCCC1)c1cccc(Br)c1,-4.76%
16,CCC(C)(C(=O)Nc1ccc2c(c1)OCCO2)N(C(C)=O)c1ccc(C(N)=O)cc1 (stereo not shown),-6.44%
17,S=C(Nc1cccc(Cl)c1)Nc1ccccc1Oc1ccccc1,11.1%
18,O=c1/c(=C/c2cccc3ccccc23)sc2ncnn12,5.17%
19,COc1cc(/C=N/NC(=O)c2ccc3nc[nH]c3c2)cc(OC)c1OC,10.6%
20,CCOC(=O)c1cnc2c(-c3ccccc3)c(-c3ccccc3)nn2c1C,15.5%
21,CC(=O)N=c1sccn1CC(=O)c1ccc([N+](=O)[O-])cc1,-6.56%
22,O=C1NC(Nc2ccccn2)(C(F)(F)F)C(=O)N1c1ccc(F)cc1 (stereo not shown),9.43%

row,Structure (SMILES),"hERG current change (%, negative = inhibition) at 1uM"
1,Cc1c(NC(=O)C(C)Oc2cccc(Cl)c2)c(=O)n(-c2ccccc2)n1C (stereo not shown),10.7%
2,COc1ccc(C(=O)N[C@H](C(=O)NCc2ccccc2)C(C)C)cc1,10.6%
3,COc1ccc(/C=N/NC(=O)c2c(C)nnn2-c2nonc2N)cc1OC,4.23%
4,O=C1CC(c2ccccc2)N1c1ccccc1 (stereo not shown),-0.587%
5,CC(C)(C)c1nnc(NC(=O)C2CCN(C(=O)c3ccco3)CC2)s1,17.9%
6,CC1Cc2ccccc2N1CC(=O)Nc1ccc2c(c1)OCO2 (stereo not shown),8.48%
7,CC(=O)Nc1cccc(NC(=O)c2cc(C)on2)c1,3.33%
8,COc1cccc(C(=O)NNC(=O)Cc2csc(N)n2)c1,6.02%
9,CSc1ccccc1NC(=O)c1cnc2scc(C)n2c1=O,7.83%
10,CC(C)CCN(C(=O)c1ccc(N2CCCC2=O)cc1)c1c(N)n(Cc2ccccc2)c(=O)[nH]c1=O,16.1%
11,Cc1c(C)c(C)c(CO/N=C/c2cccs2)c(C)c1C,3.42%
12,COc1ccc(C)cc1NC(=O)CCNS(=O)(=O)c1ccc2c(c1)CCC(=O)N2,4.47%
13,CCOc1cccc(NC(=O)CC#N)c1,12.4%
14,O=C1C=C(c2cccc(Cl)c2)C[C@@H](c2ccc(Cl)cc2)C1,14.6%
15,CCc1nnc(NC(=O)C2CC(=O)N(c3ccc(C)cc3)C2)s1 (stereo not shown),2.64%
16,O=C(O)c1csc(-n2nc(-c3ccccc3)cc2C(F)(F)F)n1,9.45%
17,O=c1c2ccccc2nc(SCc2ccc([N+](=O)[O-])cc2)n1-c1ccc(Cl)cc1,4.42%
18,CC(=O)c1c(C)n(CC(=O)NCc2ccco2)c2ccccc12,3.11%
19,Cc1nc2cc(NC(=O)Nc3ccccc3Cl)ccc2n1C,3.73%
20,COc1ccc2ncc(S(=O)(=O)c3ccccc3)c(N3CCC4(CC3)OCCO4)c2c1,-6.47%
21,CCC1=NN(C(=O)CCc2ccc3c(c2)OCO3)C(O)(C(F)(F)F)C1 (stereo not shown),15.5%
22,Cc1cccc(-[n+]2c(C)cc(C)c3c(=O)[nH]c(=O)[nH]c32)c1.[I-],4.1%
